Source: patent US20230383007A1 (BIOSION, published 2023)

T1: human TROP2-his protein (human, UniProt P09758 27-274)
T1 construct: also called biotin labeled human TROP2-his protein
T1 sequence: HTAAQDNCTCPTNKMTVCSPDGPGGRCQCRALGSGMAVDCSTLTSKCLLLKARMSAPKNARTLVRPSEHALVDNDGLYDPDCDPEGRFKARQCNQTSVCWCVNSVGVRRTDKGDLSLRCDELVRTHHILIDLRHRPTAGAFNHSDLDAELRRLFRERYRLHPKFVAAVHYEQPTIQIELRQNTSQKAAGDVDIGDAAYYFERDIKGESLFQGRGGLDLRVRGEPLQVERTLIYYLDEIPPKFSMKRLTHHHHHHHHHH


What was measured:
human TROP2-his protein [1] = target: T1, human TROP2-his protein; experiment: SPR Biacore T200; cell supernatant captured on anti-human IgG chip, 40 nM human TROP2-his as analyte
Excerpt: (§1) The purified anti-TROP2 mouse monoclonal antibodies (mAbs) were characterized for binding affinity and binding kinetics by Biacore T200 system (GE healthcare, Pittsburgh, PA, USA). Briefly, goat anti-human IgG (GE healthcare, Cat #BR100839, Human Antibody Capture Kit) was covalently linked to a CM5 chip (carboxy methyl dextran coated chip from GE healthcare #BR100530) via primary amines, using a standard amine coupling kit (GE healthcare, Pittsburgh, PA, USA) provided by Biacore. Un-reacted moieties on the chip (biosensor) surface were blocked with ethanolamine. The anti-TROP2 antibodies of the disclosure and the benchmark at the concentration of 2 μg/ml were respectively flowed onto the chip at a flow rate of 10 μL/min. Then, serially diluted human TROP2-his protein (prepared in-house with SEQ ID NO: 16), or cynomolgus TROP2-his protein (prepared in-house with SEQ ID NO: 19), 2-fold dilution in HBS-EP⁺ buffer (provided by Biacore) starting at 160 nM, were flowed onto the chip at a flow rate of 30 μL/min. The antigen-antibody association kinetics was followed for 2 minutes and the dissociation kinetics was followed for 10 minutes. The association and dissociation curves were fit to a 1:1 Langmuir binding model using BIAcore evaluation software.
For the BIAcore test, cell supernatants containing humanized 01-9F-CDR-V11 antibodies were respectively flowed onto the chip at a flow rate of 10 μL/min, and 40 nM human TROP2-his protein (prepared in-house with SEQ ID NO: 16) in HBS-EP⁺ buffer (provided by Biacore) were flowed onto the chip at a flow rate of 30 μL/min.

human TROP2-his protein [2] = target: T1, human TROP2-his protein; experiment: SPR Biacore; cell supernatant captured on anti-human IgG chip, 40 nM human TROP2-his as analyte
Excerpt: as §1
For the BIAcore test, cell supernatants containing the 01-9F-Fc variants were respectively flowed onto the chip instead of the purified anti-TROP2 antibodies, at a flow rate of 10 μL/min, and 40 nM human TROP2-his proteins (prepared in-house with SEQ ID NO: 16) in HBS-EP⁺ buffer (provided by Biacore), instead of serially diluted human TROP2-his proteins, were flowed onto the chip at a flow rate of 30 μL/min.

Row | Kd (human TROP2-his protein [1]) [nM] | koff (human TROP2-his protein [1]) [s⁻¹] | kon (human TROP2-his protein [1]) [M⁻¹ s⁻¹] | Kd (human TROP2-his protein [2]) [nM] | koff (human TROP2-his protein [2]) [s⁻¹] | kon (human TROP2-his protein [2]) [M⁻¹ s⁻¹] | Binder
1 | 2.14 | 0.00237 | 1.11e+06 |  |  |  | 01-9F-CDR-V11-V22-Fc (Fc fusion, Humanized heavy chain only antibody (VHH-Fc); also called 01-9F-Fc-CDRV11-V22) heavy: QVQLVESGGGLVQPGGSLRLSCAASGGSEYRYCVAWFRQAPGQGLEAVARILSDATTSYSDTVKGRFTISRDNSKNTLYLQMNSLRAEDTAVYYCAAEAFRPFTPSDADCTTVLGIDYWGQGTLVTVSS[… human IgG1 Fc …]
2 |  |  |  | 0.317 | 0.000103 | 325000 | 01-9F-CDR-V1-Fc (Fc fusion, Heavy chain only antibody (VHH-Fc); tested as cell supernatant; also called 01-9F-CDR-Fc-V1) heavy: QVQLVESGGGSVQAGGSLRLSCVVSGLPYERYCVAWFRQGPGKEREGVARILSDGTTSYSDSVKGRFTISKDNAKNTLYLQMNSLKSEDTATYYCAAEAFRPFTPSEGDCTTVLGIDYWGKGTPVTVSS[… human IgG1 Fc …]
3 |  |  |  | 0.219 | 7.01e-05 | 320000 | 01-9F-CDR-V4-Fc (Fc fusion, Heavy chain only antibody (VHH-Fc); tested as cell supernatant; also called 01-9F-CDR-Fc-V4) heavy: QVQLVESGGGSVQAGGSLRLSCVVSGLPYERYCVAWFRQGPGKEREGVARILSEGTTSYSDSVKGRFTISKDNAKNTLYLQMNSLKSEDTATYYCAAEAFRPFTPSEGDCTTVLGIDYWGKGTPVTVSS[… human IgG1 Fc …]
4 | 0.173 | 0.000186 | 1.08e+06 |  |  |  | 01-9F-CDR-V11-V1-Fc (Fc fusion, also called 01-9F-Fc-CDRV11-V1) heavy: QVQLVESGGGLVQPGGSLRLSCAVSGLPYERYCVAWFRQAPGKGLEGVARILSDATTSYSDTVKGRFTISKDNAKNTLYLQMNSLKAEDTAVYYCAAEAFRPFTPSDADCTTVLGIDYWGKGTTVTVSS[… human IgG1 Fc …]
5 |  |  |  | 0.251 | 9.23e-05 | 368000 | 01-9F-CDR-V2-Fc (Fc fusion, Heavy chain only antibody (VHH-Fc); tested as cell supernatant; also called 01-9F-CDR-Fc-V2) heavy: QVQLVESGGGSVQAGGSLRLSCVVSGLPYERYCVAWFRQGPGKEREGVARILSDGTTSYSDSVKGRFTISKDNAKNTLYLQMNSLKSEDTATYYCAAEAFRPFTPSDADCTTVLGIDYWGKGTPVTVSS[… human IgG1 Fc …]
6 |  |  |  | 0.45 | 0.000117 | 261000 | 01-9F-CDR-V3-Fc (Fc fusion, Heavy chain only antibody (VHH-Fc); tested as cell supernatant; also called 01-9F-CDR-Fc-V3) heavy: QVQLVESGGGSVQAGGSLRLSCVVSGLPYERYCVAWFRQGPGKEREGVARILSDGTTSYSDSVKGRFTISKDNAKNTLYLQMNSLKSEDTATYYCAAEAFRPFTPSIGDCTTVLGIDYWGKGTPVTVSS[… human IgG1 Fc …]
7 | 1.44 | 0.00241 | 1.67e+06 |  |  |  | 01-9F-CDR-V11-V8-Fc (Fc fusion, Humanized heavy chain only antibody (VHH-Fc); also called 01-9F-Fc-CDRV11-V8) heavy: EVQLVESGGGLVQPGGSLRLSCAASGLPFSRYCVAWFRQAPGKGLEGVARILSDATTSYSDTVKGRFTISKDNAKNSLYLQMNSLRAEDTAVYYCAAEAFRPFTPSDADCTTVLGIDYWGQGTTVTVSS[… human IgG1 Fc …]
8 | 0.86 | 0.00149 | 1.74e+06 |  |  |  | 01-9F-CDR-V11-V4-Fc (Fc fusion, Humanized heavy chain only antibody (VHH-Fc); also called 01-9F-Fc-CDRV11-V4) heavy: EVQLVESGGGLVQPGGSLRLSCAVSGLTYSRYCVAWFRQAPGKGLEGVARILSDATTSYSDTVKGRFTISRDNAKNSLYLQMNSLRAEDTAVYYCAAEAFRPFTPSDADCTTVLGIDYWGQGTTVTVSS[… human IgG1 Fc …]
9 | 1.21 | 0.00171 | 1.42e+06 |  |  |  | 01-9F-CDR-V11-V14-Fc (Fc fusion, Humanized heavy chain only antibody (VHH-Fc); also called 01-9F-Fc-CDRV11-V14) heavy: EVQLVESGGGLVQPGGSLRLSCAASGLTYERYCVAWFRQAPGKGLEGVARILSDATTSYSDTVKGRFTISRDNAKNSLYLQMNSLRAEDTAVYYCAAEAFRPFTPSDADCTTVLGIDYWGQGTTVTVSS[… human IgG1 Fc …]
10 | 0.184 | 0.000539 | 2.93e+06 |  |  |  | 01-9F-CDR-V11-V9-Fc (Fc fusion, also called 01-9F-Fc-CDRV11-V9) heavy: EVQLVESGGGLVQPGGSLRLSCAASGLPYSRYCVAWFRQAPGKGLEGVARILSDATTSYSDTVKGRFTISRDNAKNSLYLQMNSLRAEDTAVYYCAAEAFRPFTPSDADCTTVLGIDYWGQGTTVTVSS[… human IgG1 Fc …]
11 | 1.16 | 0.00161 | 1.4e+06 |  |  |  | 01-9F-CDR-V11-V12-Fc (Fc fusion, Humanized heavy chain only antibody (VHH-Fc); also called 01-9F-Fc-CDRV11-V12) heavy: EVQLVESGGGLVQPGGSLRLSCAASGFTYERYCVAWFRQAPGKGLEGVARILSDATTSYSDTVKGRFTISKDNAKNSLYLQMNSLRAEDTAVYYCAAEAFRPFTPSDADCTTVLGIDYWGQGTTVTVSS[… human IgG1 Fc …]
12 | 1.07 | 0.0015 | 1.41e+06 |  |  |  | 01-9F-CDR-V11-V21-Fc (Fc fusion, Humanized heavy chain only antibody (VHH-Fc); also called 01-9F-Fc-CDRV11-V21) heavy: EVQLVESGGGLVQPGGSLRLSCAASGLTYSRYCVAWFRQAPGKGLEGVARILSDATTSYSDTVKGRFTISKDNAKNTLYLQMNSLRAEDTAVYYCAAEAFRPFTPSDADCTTVLGIDYWGKGTTVTVSS[… human IgG1 Fc …]
13 | 2.37 | 0.0029 | 1.23e+06 |  |  |  | 01-9F-CDR-V11-V18-Fc (Fc fusion, Humanized heavy chain only antibody (VHH-Fc); also called 01-9F-Fc-CDRV11-V18) heavy: EVQLVESGGGLVQPGGSLRLSCAASGLTFSRYCVAWFRQAPGKGLEGVARILSDATTSYSDTVKGRFTISKDNAKNTLYLQMNSLRAEDTAVYYCAAEAFRPFTPSDADCTTVLGIDYWGKGTTVTVSS[… human IgG1 Fc …]
14 | 1.61 | 0.00161 | 998000 |  |  |  | 01-9F-CDR-V11-V2-Fc (Fc fusion, Humanized heavy chain only antibody (VHH-Fc); also called 01-9F-Fc-CDRV11-V2) heavy: EVQLVESGGGLVQPGGSLRLSCAVSGFTYSRYCVAWFRQAPGKGLEGVARILSDATTSYSDTVKGRFTISKDNAKNSLYLQMNSLRAEDTAVYYCAAEAFRPFTPSDADCTTVLGIDYWGQGTTVTVSS[… human IgG1 Fc …]
15 | 0.802 | 0.00118 | 1.47e+06 |  |  |  | 01-9F-CDR-V11-V16-Fc (Fc fusion, Humanized heavy chain only antibody (VHH-Fc); also called 01-9F-Fc-CDRV11-V16) heavy: EVQLVESGGGLVQPGGSLRLSCAASGLTYERYCVAWFRQAPGKGLEGVARILSDATTSYSDTVKGRFTISKDNAKNSLYLQMNSLRAEDTAVYYCAAEAFRPFTPSDADCTTVLGIDYWGQGTTVTVSS[… human IgG1 Fc …]
16 | 1.98 | 0.00257 | 1.3e+06 |  |  |  | 01-9F-CDR-V11-V13-Fc (Fc fusion, Humanized heavy chain only antibody (VHH-Fc); also called 01-9F-Fc-CDRV11-V13) heavy: EVQLVESGGGLVQPGGSLRLSCAASGLTFERYCVAWFRQAPGKGLEGVARILSDATTSYSDTVKGRFTISKDNAKNSLYLQMNSLRAEDTAVYYCAAEAFRPFTPSDADCTTVLGIDYWGQGTTVTVSS[… human IgG1 Fc …]
17 | 0.643 | 0.00121 | 1.88e+06 |  |  |  | 01-9F-CDR-V11-V6-Fc (Fc fusion, Humanized heavy chain only antibody (VHH-Fc); also called 01-9F-Fc-CDRV11-V6) heavy: EVQLVESGGGLVQPGGSLRLSCAVSGLTYSRYCVAWFRQAPGKGLEGVARILSDATTSYSDTVKGRFTISKDNAKNSLYLQMNSLRAEDTAVYYCAAEAFRPFTPSDADCTTVLGIDYWGQGTTVTVSS[… human IgG1 Fc …]
18 | 1.23 | 0.00171 | 1.39e+06 |  |  |  | 01-9F-CDR-V11-V17-Fc (Fc fusion, Humanized heavy chain only antibody (VHH-Fc); also called 01-9F-Fc-CDRV11-V17) heavy: EVQLVESGGGLVQPGGSLRLSCAASGFTYSRYCVAWFRQAPGKGLEGVARILSDATTSYSDTVKGRFTISKDNAKNTLYLQMNSLRAEDTAVYYCAAEAFRPFTPSDADCTTVLGIDYWGKGTTVTVSS[… human IgG1 Fc …]
19 | 0.583 | 0.00118 | 2.03e+06 |  |  |  | 01-9F-CDR-V11-V7-Fc (Fc fusion, Humanized heavy chain only antibody (VHH-Fc); also called 01-9F-Fc-CDRV11-V7) heavy: EVQLVESGGGLVQPGGSLRLSCAASGFPYSRYCVAWFRQAPGKGLEGVARILSDATTSYSDTVKGRFTISKDNAKNSLYLQMNSLRAEDTAVYYCAAEAFRPFTPSDADCTTVLGIDYWGQGTTVTVSS[… human IgG1 Fc …]
20 | 2.47 | 0.00219 | 887000 |  |  |  | 01-9F-CDR-V11-V3-Fc (Fc fusion, Humanized heavy chain only antibody (VHH-Fc); also called 01-9F-Fc-CDRV11-V3) heavy: EVQLVESGGGLVQPGGSLRLSCAVSGLTFSRYCVAWFRQAPGKGLEGVARILSDATTSYSDTVKGRFTISKDNAKNSLYLQMNSLRAEDTAVYYCAAEAFRPFTPSDADCTTVLGIDYWGQGTTVTVSS[… human IgG1 Fc …]
21 | 1.38 | 0.00192 | 1.39e+06 |  |  |  | 01-9F-CDR-V11-V19-Fc (Fc fusion, Humanized heavy chain only antibody (VHH-Fc); also called 01-9F-Fc-CDRV11-V19) heavy: EVQLVESGGGLVQPGGSLRLSCAASGLTYSRYCVAWFRQAPGKGLEGVARILSDATTSYSDTVKGRFTISRDNAKNTLYLQMNSLRAEDTAVYYCAAEAFRPFTPSDADCTTVLGIDYWGKGTTVTVSS[… human IgG1 Fc …]
